Values of other authors, collected in PMC9502701 (Molecules, 2022).

Tested on: influenza NA
Conditions: cited from earlier work

Row | Compound | NA inhibitory activity (in words), compared with positive control apigenin | influenza NA inhibitory activity (in words)
1 | O=C(/C=C/c1ccc(O)c(O)c1)O[C@@H]1[C@H](O)C[C@@](O)(C(=O)O)C[C@H]1OC(=O)/C=C/c1ccc(O)c(O)c1 [4,5-Di-O-caffeoylquinic acid] | superior | –
2 | O=C(/C=C/c1ccc(O)c(O)c1)O[C@@H]1C[C@](O)(C(=O)O)C[C@@H](O)[C@H]1O [Chlorogenic acid, chlorogenic acid] | superior | –
3 | O=C(/C=C/c1ccc(O)c(O)c1)O[C@H]1[C@H](O)C[C@](O)(C(=O)O)C[C@H]1O [Cryptochlorogenic acid, cryptochlorogenic acid] | superior | –
4 | O=C(/C=C/c1ccc(O)c(O)c1)O[C@@H]1C[C@@](O)(C(=O)O)C[C@@H](O)[C@@H]1O [Neochlorogenic acid, neochlorogenic acid] | superior | –
5 | C=C[C@H]1[C@H](O[C@@H]2O[C@H](CO)[C@@H](O)[C@H](O)[C@H]2O)OC=C(C(=O)OC)[C@H]1CC(=O)O [Secoxyloganin, secoxyloganin] | – | weak
6 | C=C[C@H]1[C@H](O[C@@H]2O[C@H](CO)[C@@H](O)[C@H](O)[C@H]2O)OC=C2C(=O)OCC[C@H]21 [Sweroside, sweroside] | – | weak
